Laboratory results reported in PMC12040169 (PLOS Biology, 2025).
Some of the results follow.

Tested on: T1, C. trachomatis L2/434/Bu expressing GFP (CTL2-GFP)
T1 construct: L2/434/Bu GFP intracellular growth in HeLa cells
Set-up: species or system HeLa; C. trachomatis total inclusion area by high-content imaging, normalised to DMSO
Settings: total inclusion area; 28.5 h, 10 µM; inhibitor
Method in brief: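 Host cell viability was gauged from Hoechst-stained nuclei counts, while chlamydial growth was taken from total inclusion area and inclusion number per well. Cells were fixed and imaged by high-content microscopy once bulk GFP and resorufin fluorescence had been measured.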

Compound | % of control remaining
Cc1ccc(S(=O)(=O)N(CC(=O)NC2CC3CCC2C3)c2cc(Cl)cc(Cl)c2)cc1 (stereo not shown) [CBK263995] | 101.618
Cc1cc(C)cc(NC(=O)C(Cc2ccccc2)C(=O)Nc2cc(C)cc(C)c2)c1 [CBK266165] | 105.517
COc1ccccc1-c1ccc(NC(=O)CCc2nc3ccccc3[nH]2)cc1 [CBK285651] | 104.138
O=C(O)c1ccccc1NC1SC(=O)N(c2ccccc2)C1=O (stereo not shown) [CBK261078] | 102.065
CCOC(=O)c1cnc(SC)nc1NCCc1c[nH]c2cc(OC)ccc12 [CBK092317] | 85.7513
Cc1ccc2n1CCN(C(=O)c1cccc(-n3cnnc3)c1)C2C(C)C (stereo not shown) [CBK282444] | 127.241
Cc1cc(S(=O)(=O)N2CCCC2)ccc1OCC(=O)NCc1ccccn1 [CBK270027] | 93.6867
CN1CCN(c2nc(NS(=O)(=O)c3cccc(C(F)(F)F)c3)cc3ccccc23)CC1 [CBK200013C] | 97.4413
COc1ccnc(N2CCN(Cc3cncn3C3CCCCC3)CC2)n1 [CBK306925] | 97.4479
O=C(Cc1ccsc1)N1CCN(c2ncccn2)CC1 [CBK144525] | 99.7622
CC1(NC(=O)CC[N+]23CCN(CC2)CC3)CS(=O)(=O)CC1S(=O)(=O)[O-] (stereo not shown) [CBK262518] | 53.7375
O=C(Nc1ccc2nc(-c3ccc(-c4nc5ccc(NC(=O)c6cccc7ccccc67)cc5[nH]4)cc3)[nH]c2c1)c1cccc2ccccc12 [CBK261160] | 88.5605
CC(=O)NC(c1nccs1)C1CCN(C(=O)C2CC2C)CC1 (stereo not shown) [CBK282232] | 84.3429
CCOCCCn1c(SC(C)C#N)nc2ccc(Br)cc2c1=O (stereo not shown) [CBK306084] | 22.6472
Cn1c(=O)oc2ccc(C(=O)N3CCn4nc(CO)cc4C3)cc21 [CBK306821] | 87.5099
COc1ccc(NC(=O)CC(CN2CCN(c3ccc(Cl)cc3)CC2)C(=O)O)cc1 (stereo not shown) [CBK286831] | 113.97
COc1ccc(-c2nn(CCC(=O)O)cc2/C=C2\SC(=S)NC2=O)cc1OC [CBK265318] | 95.1396
S=c1[nH]cnc2c1[nH]c1ccc(Br)cc12 [CBK288487] | 58.9428
COc1cc(NC(=O)c2ccc(-c3cc4ccccc4oc3=O)cc2)ccc1NC(=O)C(C)C [CBK268601] | 79.1314
CC1CCCN(C(=O)CCn2c(-c3ccccn3)cc3cccnc32)C1 (stereo not shown) [CBK282154] | 88.9637
O=C(Nc1ncc(Cc2ccc(F)cc2)s1)c1csc2c1CCCC2 [CBK300489] | 30.176
CCC(CN1CCCC1)NC(=O)Cc1c(C)[nH]c2ccc(F)cc12 (stereo not shown) [CBK282751] | 113.52
COc1cccc(COc2cnc(-c3ccccc3)c(N)n2)c1OC [CBK145066] | 95.3317
Cc1c(Cl)cccc1CNC(=O)CC1SC(NCC2CCCCC2)=NC1=O (stereo not shown) [CBK067017] | 34.662
Nc1c(C(=O)O)nnn1Cc1ccccc1 [CBK263796] | 121.342

Compound | % of control remaining
COc1ccc(/C=N/NC(=O)CCn2c3ccccc3c3ccccc32)cc1O [CBK262343] | 6.621
COc1ccc(-c2csc(NS(=O)(=O)c3c(C)cc(Cl)cc3Cl)n2)cc1 [CBK000814] | 95.9387
Cc1cccc(CN(CCCN(C)C)Cc2ccc(C)o2)n1 [CBK283187] | 95.785
CN(C)CCCNC(=O)c1cccc(S(=O)(=O)N2CCCCC2)c1 [CBK304314C] | 107.482
C[C@H](c1ccccc1)n1c(=O)[nH]c2ncc(-c3ccc(C(N)=O)cc3)nc21 [CBK064377] | 79.5471
CC1(C)O[C@@H]2O[C@@H](C(O)CNC(=O)c3ccccc3)[C@@H](NC(=O)c3ccccc3)[C@@H]2O1 (stereo partly shown) [CBK008727] | 74.1521
COc1nccnc1OC1CCN(CCc2ccc3ccccc3c2)CC1 [CBK084264] | 98.9224
Cc1cc(C)c(-n2nnnc2SCc2ccc(F)cc2)c(C)c1 [CBK100994] | 73.6868
CCOC(=O)[C@H]1CC[C@]2(CC1)CNC(=O)c1ccccc1O2 [CBK284893] | 100.222
CCc1c(C)sc2ncn(C3CCNCC3)c(=O)c12 [CBK282972] | 107.625
COc1ccc(OC)c(NC(=O)Cn2cc(C(C)=O)c3ccccc32)c1 [CBK268661] | 105.246
Cc1noc(C)c1S(=O)(=O)Nc1nnn[nH]1 [CBK062378] | 87.787
CN(C)CCN(C)C(=O)c1cc(Br)cnc1N1CCN(C(=O)c2ccco2)CC1 [CBK076514] | 70.1986
CC(C)CC(=O)Nc1ccc2nc(SCC(=O)O)sc2c1 [CBK299801] | 92.2497
O=c1[nH]cc(CN2CCCN(S(=O)(=O)c3ccc(C(F)(F)F)cc3Cl)CC2)c(=O)[nH]1 [CBK062975] | 64.9518
CN1CCOc2ccccc2C(=O)NC/C=C/CC2(CCCN(Cc3cc[nH]n3)C2)C1=O (stereo not shown) [CBK292175] | 99.4198
COc1ccccc1NS(=O)(=O)c1ccc(N2CCN3CCCC3C2)c(N)c1 (stereo not shown) [CBK001266] | 87.9884
Cc1ccc(NC(=O)c2ccc3nccnc3c2)c(C)n1 [CBK200219] | 83.7012
CN(C)c1ccc(/C=N/NC(=O)CCn2c3ccccc3c3cc(I)ccc32)cc1 [CBK262902] | 111.05
CC(NS(=O)(=O)c1ccc(F)cc1)C(=O)Nc1ccc(C(N)=O)cc1 (stereo not shown) [CBK267658] | 69.5971
CC1(C)CC(N(Cc2ccncc2)Cc2ccoc2)CC(C)(C)N1 [CBK283269] | 83.4958
Cc1cc(COC(=O)NCc2ccncc2)cc(C)n1 [CBK200136] | 89.8148
CCOC(=O)C(CNC(=O)CNC(=O)c1ccoc1)Cc1ccccc1 (stereo not shown) [CBK305971] | 37.4443
CCCCC1=NN2C(=N)/C(=C/c3cn(Cc4ccc([N+](=O)[O-])cc4)c4ccccc34)C(=O)N=C2S1 [CBK264320] | 114.966
